The campaign covered roughly 110,000 compounds. About 230 (0.21%) showed an effect of 50% or more. The list shows a part of the results.
Each molecule was assayed against DPAP1 (Plasmodium falciparum, UniProt Q8IIJ9) (assay: primary screen, percent inhibition; read by cleavage of a fluorogenic dipeptide substrate; higher = more effect of the substance).
Design: species or system P. falciparum D10 trophozoite lysates; single well
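Note: 30 min substrate incubation versus DMSO and 10 µM JCP410 controls.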

DPAP1, sequence (Q8IIJ9 whole entry, looked up): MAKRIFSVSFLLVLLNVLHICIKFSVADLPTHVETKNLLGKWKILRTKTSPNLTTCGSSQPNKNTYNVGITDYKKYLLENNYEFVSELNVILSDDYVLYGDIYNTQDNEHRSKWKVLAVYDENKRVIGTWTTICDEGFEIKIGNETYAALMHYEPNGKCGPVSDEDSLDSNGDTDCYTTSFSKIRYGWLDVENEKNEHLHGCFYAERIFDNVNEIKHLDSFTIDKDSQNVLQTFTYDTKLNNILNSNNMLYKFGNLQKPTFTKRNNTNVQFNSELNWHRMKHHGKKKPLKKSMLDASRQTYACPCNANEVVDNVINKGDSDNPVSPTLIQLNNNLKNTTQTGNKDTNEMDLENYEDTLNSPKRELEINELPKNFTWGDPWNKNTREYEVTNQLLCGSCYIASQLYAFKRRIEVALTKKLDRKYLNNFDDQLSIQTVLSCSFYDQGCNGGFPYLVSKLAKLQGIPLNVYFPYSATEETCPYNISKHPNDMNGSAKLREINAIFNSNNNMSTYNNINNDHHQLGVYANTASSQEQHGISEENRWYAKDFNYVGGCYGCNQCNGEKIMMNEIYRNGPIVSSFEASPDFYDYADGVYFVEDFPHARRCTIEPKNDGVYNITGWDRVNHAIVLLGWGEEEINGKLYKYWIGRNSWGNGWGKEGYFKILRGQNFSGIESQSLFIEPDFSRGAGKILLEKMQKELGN

Compound	% Inhibition @ 10 uM [%]
CN(C)CCNC(=O)c1ccc(Cn2c(SCc3ccccc3F)nc3ccncc32)cc1	10.2
CCOC(=O)c1[nH]c2ccccc2c1NC(=O)c1ccc(-c2ccccc2)cc1	-2.74
COc1cc(/C=C2\C(=O)ON=C2C)ccc1OC(C)C	5.12
N#Cc1ccc(-c2nc3cc(Cl)c(Cl)cc3[nH]2)cc1	0.58
Cc1cccc(NC(=O)c2cccs2)c1C	-1.28
CCCCN1C(=O)c2[nH]nc(-c3ccccc3O)c2C1c1ccc(C)cc1 (stereo not drawn)	-3.34
Cc1cccc(-n2nnc(-c3nc(-c4cccnc4)no3)c2N)c1	-0.485
COc1cc(C(=O)N=C2C(C)=CC(=O)C=C2C)cc(OC)c1OC	1.67
CC(C)c1[nH]nc2c1C(c1ccco1)C(C#N)=C(N)O2 (stereo not drawn)	-3.16
O=C(CCCCn1c(=O)[nH]c2ccsc2c1=O)NCc1cccnc1	-4.06
CCCCOc1ccc(C(C)NC(=O)CCS(=O)(=O)Cc2ccc(Cl)cc2)cc1 (stereo not drawn)	3.24
CCOc1ccc(CCNC(=O)CCc2c(C)nc3ncnn3c2O)cc1	-3.33
Cc1ccc(C)c(N(CN2C(=O)c3ccccc3C2=O)C(=O)C(F)(F)F)c1	-2.98
O=C(c1ccccc1F)N1CCNCC1	1.13
CCOc1ccc(-c2nnc(SCC(=O)N3CCCCC3CC)o2)cc1 (stereo not drawn)	1.86
Cc1nc(CNS(=O)(=O)c2ccccc2)cs1	-4.24
CC1CC(C)CN(CCCNC(=O)C2CCN(S(=O)(=O)c3cccc4nsnc34)CC2)C1 (stereo not drawn)	3.53
Cc1ccsc1CCNS(=O)(=O)c1ccc(CN2C(=O)c3cccnc3C2=O)cc1	0.776
Cc1ccc2c(C)nc(/N=C(\N)NS(=O)(=O)c3ccccc3)nc2c1	3.36
Cc1nn(C)c(C)c1NC(=O)c1cnn2c(C(F)F)cc(-c3ccccc3)nc12	-2.75
Cc1oncc1C(=O)Nc1ccc(Oc2ccccc2)cc1	-2.32
COc1cccc(C2C(C(=O)c3ccc(Cl)cc3)=C(O)C(=O)N2Cc2ccco2)c1 (stereo not drawn)	-4.39
COc1ccc(N2C(N)=C(C#N)C(c3ccccc3)C3=C2CCCC3=O)cc1 (stereo not drawn)	3.72
c1ccc(-c2cc(NCCCn3ccnc3)n3c(n2)nc2ccccc23)cc1	-4.67
COCc1[nH]nc2c1C(c1cccnc1)C(C#N)=C(N)O2 (stereo not drawn)	2.08

Compound	% Inhibition @ 10 uM [%]
COCC(C)NC(=O)c1cc(-c2ccc(O)cc2)on1 (stereo not drawn)	-1.28
CCOC(=O)C1=C(CC)OC(N)=C(C#N)C1c1cccc(Cl)c1Cl (stereo not drawn)	10.5
CCOc1ccc(CNC(=O)c2cc3c(s2)-c2c(C)cccc2OC3)cc1	-1.37
NC(=O)c1c(NC(=O)COc2ccccc2)sc2c1CCCC2	2.67
O=C(NCC1CCCO1)c1cc2c(s1)CS(=O)(=O)C2 (stereo not drawn)	-2.01
O=C(COc1ccccc1)Nc1cccc(C(F)(F)F)c1	1.44
C(=C\C1Nc2cccc3cccc(c23)N1)/c1ccco1	-2.37
CC(=O)NC1=NN(C(C)=O)C(C)(CCS(=O)(=O)c2ccc(Br)cc2)S1 (stereo not drawn)	-1.42
Oc1c2c(nc3c(-c4ccccc4)c(Cc4ccccc4)nn13)CCCC2	3.32
COc1ccc(C2CC(=O)C(/C=N/c3ccccc3-c3ccccc3)=C(O)C2)cc1 (stereo not drawn)	-2.64
Cc1ccc(-n2c(C)cc(/C=C3/SC(=S)NC3=O)c2C)cc1	0.392
CCOc1ccc(N(C(C)=O)C2=NC(=O)/C(=C/c3ccccc3O)S2)cc1	3.65
O=C(c1ccc([N+](=O)[O-])cc1Cl)N1CCOCC1	1.91
Cc1ccc(OCC(=O)Nc2cccnc2)cc1C	-4.7
COc1ccccc1CN1CCN(Cc2ccc(C(F)(F)F)cc2)CC1	5.55
Cc1ccc(-c2cn3nc(N4CCC(C(=O)NCCc5c[nH]c6ccccc56)CC4)sc3n2)cc1	-0.878
O=C1C2ON(c3ccccc3)C(c3ccco3)C2C(=O)N1Cc1ccccc1 (stereo not drawn)	1.37
Cc1cc(C)cc(OCc2ccc(C(=O)N3N=C(C(F)F)CC3(O)C(F)F)o2)c1 (stereo not drawn)	3.04
N#Cc1ccc(NC(=O)/C=C\C(=O)O)cc1	-6.22
CC(=O)c1c(C)n(CCOc2ccc(Cl)cc2C)c2ccc(O)cc12	-1.24
O=c1c(Cc2ccccc2)c(O)cc(-c2ccco2)n1-c1ccccc1	-3.77
COc1ccc(NC(=O)c2c(Cl)cc(Cl)nc2Cl)cc1	-5.29
CC(C)(c1ccc(O)cc1)c1ccc(Oc2ccc([N+](=O)[O-])cc2)cc1	2.17
CC(C)c1ccc(C=C2C(=O)N(C)C(=O)N(C)C2=O)cc1	1.13
CCOc1ccc2nc(NC(=O)CN(C)S(=O)(=O)c3cccc4nsnc34)sc2c1	0.317

Compound	% Inhibition @ 10 uM [%]
CCCOc1ccc(N2CC(C(=O)Nc3ccccn3)CC2=O)cc1 (stereo not drawn)	0.316
O=C(Nc1ccc(S(=O)(=O)N2CCOCC2)cc1)c1ccco1	0.727
O=C(Cn1sc2cc(F)ccc2c1=O)NCc1ccccc1	-9.9
NC(=O)C1CCN(Cc2ccccc2Br)CC1	-0.0494
CCC1CCCCN1C(=O)Cn1c(=O)n(Cc2ccccc2)c(=O)c2c1c1cc(C)ccc1n2C (stereo not drawn)	-3.19
Cc1ccc2c(c1)cc1c(=O)n(CC(=O)N3CCN(c4ccccn4)CC3)nc(C)n12	4.84
CCOc1cc(C2C3=C(O)CC(C)(C)CC3=NC(C)=C2C(=O)Nc2ccccc2OC)ccc1O (stereo not drawn)	-6.08
COc1ccc(Cl)cc1N(CC(=O)Nc1ccccc1C(C)C)S(C)(=O)=O	15.2
CCCCSCCCNC(=O)C1CCCN(Cc2nc(-c3ccc(CC)cc3)oc2C)C1 (stereo not drawn)	0.689
O=C(O)C1CCCN(S(=O)(=O)Cc2ccccc2)C1 (stereo not drawn)	2.05
CCCN(CCO)Cc1c(C)n(C)n(-c2ccccc2)c1=O	-3.8
O=S(=O)(c1ccc(-c2ccc(O)nn2)o1)N1CCC(Cc2ccccc2)CC1	-0.193
CC(=O)c1cc2c(cc1NC(=O)C(C)Oc1ccccc1C)OCO2 (stereo not drawn)	3.67
Cc1ccc(COc2ccc3ccccc3c2/C=C2/NC(=O)NC2=O)cc1	3.19
COc1cccc(/C=C2\SC(=O)N(CC(=O)Nc3ccc(C)cc3)C2=O)c1	-6.24
Cc1ccc(Cn2c(SCCO)nc3c2c(=O)[nH]c(=O)n3C)cc1	0.317
CC(C)C[C@H](NC(=O)c1csc(-c2cccc(N)c2)n1)C(=O)NCC#N	0.173
O=C(CN1C(=O)c2cccc3cccc1c23)N1CCN(c2ccc(F)cc2)CC1	-3.92
O=C(Nc1ccc(Cl)c(Cl)c1)c1ccccc1Br	1.96
Cc1ccc(F)cc1NC(=O)C1CC(O)CN1C(=O)OCC(C)C (stereo not drawn)	3.43
CC(C)(C)C(/C=C\c1ccc(Cl)cc1Cl)n1nnnc1C(c1ccc(Cl)cc1Cl)N1CCOCC1 (stereo not drawn)	-5.28
CC(CCc1ccccc1)NC(=O)c1ccc(Br)o1 (stereo not drawn)	-5.34
O=C1c2ccc(-c3ccc4c(c3)C(=O)N(CCCO)C4=O)cc2C(=O)N1CCCO	-4.06
CNC(=S)NCc1ccc2[nH]c(C)cc2c1	2.99
CCCc1cc(O)n2nc(NCc3ccc(C(C)C)cc3)nc2n1	2.62

Compound	% Inhibition @ 10 uM [%]
CC(=C/C(=O)O)/C(=C/c1cccc2ccccc12)C(=O)O	-5.11
COc1cccc(C(=O)C2=C(O)C(=O)N(CCCn3ccnc3)C2c2ccco2)c1 (stereo not drawn)	2.49
COc1cccc(N(CC(=O)N2CCOCC2)S(=O)(=O)c2ccccc2)c1	10.2
O=C1N/C(=C/c2ccc3c(c2)OCO3)C(=O)N1c1ccc(Cl)cc1	4.05
CN(c1cccc(NC(=O)CN(c2cc(Cl)ccc2Cl)S(C)(=O)=O)c1)S(C)(=O)=O	0.993
COc1ccc(CCNC(=O)C2CC(=O)N(c3ccc(Br)cc3)C2)cc1OC (stereo not drawn)	5.39
CC1CCN(CCCNC(=O)c2cc3c(-c4ccc(Cl)cc4)nn(C)c3s2)CC1	-4.96
Clc1nc(Cl)nc(NC2CCCCC2)n1	5.55
COc1ccc(S(=O)(=O)N(CC(=O)NCC2CCCO2)Cc2ccccc2)cc1 (stereo not drawn)	3.43
COCC1=Nc2nnnn2C(c2ccc(Cl)cc2Cl)/C1=C(\O)OC (stereo not drawn)	-5.43
Cc1nc2nc(NC(=O)C(c3ccccc3)c3ccccc3)nn2c(O)c1C	0.401
Cc1cc2nc(O)c(CCO)c(C)n2n1	15.9
O=C(Cn1nc(Cc2cccnc2)c2ccccc2c1=O)NC1CCCCC1	-1.21
Cc1cccc(NC(=O)c2ccc([N+](=O)[O-])cc2Cl)c1C	6.6
CSCCC(C(=O)O)n1c(S)nnc1-c1ccc2ccccc2n1 (stereo not drawn)	-2.91
O=C(NCc1ccco1)c1cc(-c2ccccc2)nc2ccccc12	-3.94
CC(C)C(=O)Nc1cccc(-c2cn3ccsc3n2)c1	3.05
O=C(O)C1=NN(c2ccccc2)C(=O)/C1=C\c1cccs1	-6.01
COC(F)(C(=O)Nc1sc2c(c1C#N)CCN(Cc1ccccc1)C2)C(F)(F)F (stereo not drawn)	0.503
COC(=O)c1cc(Oc2nc(C)nc3sc4c(c23)CCC4)cc(C(=O)OC)c1	-8.7
CC(C)Nc1nc2ccccc2n2nnnc12	-0.522
N#CC1=C(N)Oc2cc(N)ccc2C1c1ccc(C(F)(F)F)cc1 (stereo not drawn)	-0.261
S=C(Nc1ccccc1)N1CCOCC1	0.132
COc1ccccc1-c1c(C)nn2c(N3CCCCC3C)cc(C)nc12 (stereo not drawn)	1.88

Reference: publication PMC6919601, “Identification of Plasmodium dipeptidyl aminopeptidase allosteric inhibitors by high throughput screening” (PLoS ONE, 2019)
